# In all, about 310,000 compounds went through this assay and about 2,200 (0.71%) showed an effect of 50% or more. The effect is printed as a negative number. This is one part of the list.
# Biological target: human ether-à-go-go-related gene (hERG) potassium channel (human, UniProt Q12809)
# Assay: primary screen, population patch clamp on CHO cells stably expressing hERG
# Chain of human ether-à-go-go-related gene (hERG) potassium channel (Q12809 whole entry, looked up): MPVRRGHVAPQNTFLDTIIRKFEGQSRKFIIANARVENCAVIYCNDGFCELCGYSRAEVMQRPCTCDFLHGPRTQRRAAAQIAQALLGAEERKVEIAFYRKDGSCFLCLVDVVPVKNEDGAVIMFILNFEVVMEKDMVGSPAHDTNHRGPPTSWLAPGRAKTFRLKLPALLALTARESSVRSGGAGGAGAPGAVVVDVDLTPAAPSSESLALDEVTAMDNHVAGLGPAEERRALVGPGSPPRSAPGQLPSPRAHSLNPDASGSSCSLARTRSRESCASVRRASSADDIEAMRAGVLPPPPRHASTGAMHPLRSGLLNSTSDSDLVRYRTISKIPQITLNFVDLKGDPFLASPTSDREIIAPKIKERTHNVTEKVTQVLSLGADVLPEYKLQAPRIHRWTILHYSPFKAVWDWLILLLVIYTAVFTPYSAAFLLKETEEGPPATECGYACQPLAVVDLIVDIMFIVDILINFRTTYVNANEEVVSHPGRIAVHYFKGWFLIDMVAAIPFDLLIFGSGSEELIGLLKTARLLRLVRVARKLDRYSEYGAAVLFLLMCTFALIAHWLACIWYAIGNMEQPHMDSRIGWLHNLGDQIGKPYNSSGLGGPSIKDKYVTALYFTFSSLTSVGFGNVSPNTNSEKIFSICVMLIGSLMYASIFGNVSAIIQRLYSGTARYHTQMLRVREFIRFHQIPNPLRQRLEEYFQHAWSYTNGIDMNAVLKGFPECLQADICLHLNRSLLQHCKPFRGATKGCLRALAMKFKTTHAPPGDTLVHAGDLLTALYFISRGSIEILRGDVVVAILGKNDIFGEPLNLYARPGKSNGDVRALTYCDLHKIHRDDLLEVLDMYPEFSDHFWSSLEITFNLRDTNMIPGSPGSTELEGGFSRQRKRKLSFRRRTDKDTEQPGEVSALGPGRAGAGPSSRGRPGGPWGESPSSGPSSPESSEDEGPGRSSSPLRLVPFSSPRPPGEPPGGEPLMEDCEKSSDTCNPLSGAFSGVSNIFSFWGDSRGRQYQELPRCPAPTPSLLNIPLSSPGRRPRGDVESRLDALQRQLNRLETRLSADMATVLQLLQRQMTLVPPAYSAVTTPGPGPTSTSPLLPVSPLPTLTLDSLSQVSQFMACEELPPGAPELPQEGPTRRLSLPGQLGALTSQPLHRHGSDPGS
row,SMILES,"hERG current change (%, negative = inhibition) at 1uM"
1,COCCn1c(SCC(=O)NC(C)c2ccc(F)cc2)nc2ccccc21 (stereo not shown),6.94%
2,CC1(C)CC2CC(C)(CN2S(=O)(=O)c2ccc(C(=O)Nc3ccc(S(=O)(=O)N4CCOCC4)cc3)cc2)C1 (stereo not shown),5.71%
3,O=c1c2ccccc2nc2c3ccccc3c(NCc3cccnc3)nn12,6.3%
4,CC(OC(=O)c1ccc2c(=O)n3c(nc2c1)CCC3)C(N)=O (stereo not shown),13.3%
5,Cc1c(C(=O)OCC(=O)NC(C)c2ccccc2)oc2ccccc12 (stereo not shown),0.498%
6,Cc1ccc(OC(=O)COc2ccccc2)c(-n2nc3ccccc3n2)c1,14.3%
7,Cc1cc2c(OCC(O)CN3CCCC3)cccc2[nH]1 (stereo not shown),13.8%
8,CCN(c1ccccc1)S(=O)(=O)c1cc2c(cc1C)N(C)CCO2,4.71%
9,O=S(=O)(Cc1cccc(F)c1)c1c[nH]c2ccccc12,9.8%
10,Cc1ccc(SCC(=O)OCC(=O)NC2CCCCCC2)cc1,9.2%
11,Clc1cccc(N2CCN(c3ncnc4nc[nH]c34)CC2)c1,13.3%
12,CC(C)N(Cc1cn[nH]c1-c1ccc(-c2ccccc2)cc1)Cc1nccn1C,-4%
13,Cc1ccc(C(=O)Nc2cccc(-c3cnc4ccccc4n3)c2)cc1,11.5%
14,O=C(c1ccc2c(c1)OCO2)N1CCCC1,16.1%
15,COC(=O)[C@H]1C[C@@H]1[C@H](NC(=O)c1cc(C)on1)c1ccccc1,17%
16,COc1ccccc1NC(=O)N1CCN(C(=O)Nc2ccccc2OC)CC1,5.86%
17,C#CCOCCOCCOCCNc1nc(N2CCN(C(=O)Cn3cc(CCCC[NH3+])nn3)CC2)nc(N2CCN(C(=O)[C@H](CCCC[NH3+])n3cc(CCC(=O)O)nn3)CC2)n1.[Cl-],12.7%
18,O=C(COC(=O)c1ccccc1NCCO)NCc1cccs1,9.08%
19,COC(=O)c1cn(C(C)C(=O)NCc2ccco2)c2ccccc12 (stereo not shown),18.8%
20,Cc1cc(=O)c(C(=O)c2ccccc2)c(C)o1,18.2%
21,Cc1ccc(CN2CCN(Cc3cn[nH]c3-c3cccc(F)c3)CC2CCO)o1 (stereo not shown),-4.08%
22,CC1CCCCC1NC(=O)c1ccc(-n2cncn2)c([N+](=O)[O-])c1 (stereo not shown),-0.198%

row,SMILES,"hERG current change (%, negative = inhibition) at 1uM"
1,COc1ccc(C2CC(c3ccccc3Cl)Nc3ncnn32)cc1OC (stereo not shown),-1.34%
2,Cc1ccnc(NC(=O)CCC(=O)N(CC(=O)NC2CCCCC2)c2ccc3c(c2)OCO3)c1,14.1%
3,COC(=O)C1CCCN1C(=O)COc1ccc(Br)cc1Cl (stereo not shown),13.8%
4,CCCC[n+]1c(C)sc2cc(OC)ccc21.[I-],13.3%
5,Cl.O=S(=O)(NCCN1CCOCC1)c1cccc(C(F)(F)F)c1,8.21%
6,O=C(NCc1ccc(F)cc1)c1cccs1,14.1%
7,C=CCNc1nc(C(=O)OCC(=O)c2cccc(Br)c2)cs1,-0.401%
8,CC(=NCc1cccnc1)c1c(O)n(Cc2ccccc2)c(=O)[nH]c1=O,-11.5%
9,Cc1ccc(S[C@@H](CCN2CC[C@H](C)CCC2=O)c2ccccc2)cc1,4.14%
10,CCOC(=O)N1CCC(NC(=O)CSCc2nc(-c3ccccc3Cl)oc2C)CC1,-12.4%
11,COc1ccc(/C=N/N=C(/N)N[N+](=O)[O-])c(OC)c1,7.59%
12,COc1cc(OC)c(C(=O)NCC(c2cccs2)N(C)C)cc1OC (stereo not shown),6.43%
13,COc1ccc(S(=O)(=O)N(C)CC(=O)Nc2ccc3c(c2)OCCO3)cc1OC,10.7%
14,O=C(CSc1nc2ccc(Cl)cc2[nH]1)NC1CCCC1,11%
15,COCCCn1c(SCc2cccc(C(F)(F)F)c2)nc2cc(OC)c(OC)cc2c1=N,11.4%
16,Cc1nc2cc(NC(=O)N3CCN(c4ccccn4)CC3)ccc2o1,11.1%
17,Cc1nn(C(=O)c2cccs2)c(C)c1CN1C(=O)c2ccccc2C1=O,6.2%
18,O=C(NCc1ccccc1)c1c[nH]c2ccccc2c1=O,12.1%
19,O=C(NCCCN1CCOCC1)c1cccc(S(=O)(=O)N2CCOCC2)c1,11.1%
20,CCCCCn1c(=O)[nH]c2cc(C(=O)NCCN3C(C)CCCC3C)ccc2c1=O (stereo not shown),8.81%
21,CCN(CC)S(=O)(=O)c1cc(C(=O)Nc2ccncc2)ccc1Cl,-42.7%
22,Cc1ccc(NC(=O)C2CCN(C(=O)NC3CCCCC3)CC2)c(C)c1,5.28%

row,SMILES,"hERG current change (%, negative = inhibition) at 1uM"
1,Cc1sc(NC(=O)/C=C/c2ccco2)c(C(=O)O)c1C,2.6%
2,Cc1ccc(Cl)cc1NC(=O)c1cc(NC(=O)C2CCCCC2C(=O)O)ccc1N1CCOCC1 (stereo not shown),0.405%
3,O=c1[nH]c(=O)n(Cc2ccco2)c(O)c1C=NCc1ccc2c(c1)OCO2,-8.18%
4,Cc1cc(C)c(NC(=O)CN2C(=O)NC3(CCOc4ccccc43)C2=O)c(C)c1 (stereo not shown),-0.449%
5,O=C1OC(CC(=O)N(Cc2nnc(-c3ccc(Cl)cc3)o2)C2CC2)c2ccccc21 (stereo not shown),-16%
6,CCC(C)c1ccc(NC(=S)N2CCN(c3ccccn3)CC2)cc1 (stereo not shown),7.7%
7,COc1cccc(-c2csc(N3CCN(C(=S)Nc4ccccc4OC)CC3)n2)c1,10.8%
8,CC1(C)CC(=O)/C(=C(/O)CCCN2C(=O)c3ccccc3C2=O)C(=NC(C)(C)C)C1,5.79%
9,COCCn1c(-c2ccc(OC)cc2)cnc1N,-0.397%
10,Cc1nn(C(=O)c2cccc([N+](=O)[O-])c2)c(C)c1Cl,16.7%
11,O=c1oc2ccccc2c2c1C(c1ccc(Cl)cc1)Nc1ccc3ccccc3c1-2 (stereo not shown),14.4%
12,Cc1cccc(C#N)c1NC1=CC(=O)CC(C)(C)C1.Cl,1.89%
13,O=C(Cn1c(C(F)(F)F)nc2ccccc21)N=Nc1c(O)[nH]c2ccc(Br)cc12,13.3%
14,CCOC(=O)c1sc2ccccc2c1OC(=O)c1ccccc1,7.67%
15,CC(C)c1ccc(NC(=O)CCCN2C(=O)NC(C)(C)C2=O)cc1,16.1%
16,CCCCC1=CC2=CC(=O)C(C)(OC(=O)CC)C(=O)C2=CN1CCc1ccccn1 (stereo not shown),12.6%
17,COc1ccc(NC(=O)O/N=C/c2ccccc2Cl)cc1,15%
18,O=C(Nc1ccc(F)cc1F)c1cncc(Br)c1,9.97%
19,COC(=O)c1ccc(N2C(=O)CC(N3CCC(n4c(=O)[nH]c5ccccc54)CC3)C2=O)cc1 (stereo not shown),5.68%
20,COc1ccc(NC(=O)c2ccc(-c3ccccc3)cc2)cc1S(=O)(=O)N1CCOCC1,19.2%
21,CCCNC(=O)OCC12CC3CC(CC(C3)C1)C2,11.5%
22,COc1ccc(N2CCN(C(=S)Nc3ccc(C)cc3C)CC2)cc1,21.8%

row,SMILES,"hERG current change (%, negative = inhibition) at 1uM"
1,CCC(C)(C)NC(=O)C(OC(=O)c1ccco1)c1ccccc1F (stereo not shown),14.5%
2,Cc1ccc(N=c2c([N+](=O)[O-])nn(-c3ccc4c(c3)OCCO4)n2O)c(Cl)c1,4.95%
3,CC(=O)c1ccc(NC(=O)CCc2nnc3ccc(N4CCC5(CC4)OCCO5)nn23)cc1,7.55%
4,Cc1ccc(OCc2ccccc2C)c([N+](=O)[O-])n1,10.5%
5,CCN(C(=O)COc1ccc(F)cc1Br)c1c(N)n(Cc2ccccc2)c(=O)[nH]c1=O,9.79%
6,COc1ccc(-c2cc(C(=O)Nc3ccc(C)c(C)c3)no2)cc1,20%
7,N/C(=N\OC(=O)c1ccc(Br)cc1)c1cccc([N+](=O)[O-])c1,21.9%
8,COc1cccc(OCCCCSc2ncccn2)c1,-1.25%
9,O=C(CCS(=O)(=O)c1ccc(Cl)cc1)Oc1ccc2c(c1)OCO2,8.56%
10,CC(C)(CNS(=O)(=O)c1ccc(F)cc1)CNS(=O)(=O)c1ccc(F)cc1,11.1%
11,COc1ccc(Cl)cc1C(=O)NNC(=O)c1cccc([N+](=O)[O-])c1,6.56%
12,NC(=O)C1CCN(CC(=O)Nc2ccccc2Sc2ccc(Cl)cc2)CC1,-16.1%
13,CCCC(=O)NCc1nc2ccccc2n1C,0.473%
14,COc1ccc(/C=N/c2sc3c(c2C#N)CCN(Cc2ccccc2)C3)c(O)c1,14.7%
15,COc1ccc(OCc2nc(C#N)c(NCCCn3ccnc3)o2)cc1,-4.24%
16,COc1ccc(N(C(=O)CNC(=O)c2ccco2)C(C(=O)NCC2CCCO2)c2ccccc2)cc1 (stereo not shown),16.3%
17,COC(=O)c1oc2c(c1C)C1(CCC2)SCCS1,-2.61%
18,CCc1ccc2[nH]c(=O)c(CN(Cc3ccccc3OC)C(=O)Nc3ccccc3OC)cc2c1,2.84%
19,COc1ccccc1N(CC(O)Cn1ccnc1C)S(=O)(=O)c1ccccc1 (stereo not shown),3.01%
20,Cc1sc2ncnc(SCC#N)c2c1C,9.51%
21,N/C(=N\OC(=O)c1cccc(Cl)c1)c1ccncc1,1.42%
22,Cc1ccc(-n2nc(C)c3c2OC(N)=C(C#N)C3c2ccc(C)o2)cc1 (stereo not shown),13.7%

# Reference: article PMC4336329 (PLoS ONE, 2015)
